{"source": "a collection of fitness landscapes (doi:10.1016/j.celrep.2020.107928)", "parents": {"B1": {"name": "Caulobacter ParB omega fusion; a variant is named by its letters at X, in order, B8GW30 (parent)", "chain": "MESVVVGEPGMSEGRRGLGRGLSALLGEVDAAPAQAPGEQLGGSREAPIEILQRNPDQPRRTFREEDLEDLSNSIREKGVLQPILVRPSPDTAGEYQIVAGERAWRAAQRAGLKTVPIMVRELDDLAVLEIGIIENVQRADLNVLEEALSYKVLMEKFERTQENIAQTIGKSXSHVANXMRLLXLPDEVQSYLVSGELTAXHARAIAAAADPVALAKQIIEGGLSVRETEALARKAPNLSAGKSKGGRPPRVKDTDTQALESDLSSVLGLDVSIDHRGSTGTLTITYATLEQLDDLCNRLTRGI"}}, "note": "Over roughly 81,000 sequences, “one-hybrid fitness for binding NBS DNA” has its median near -0.1; the highest 2% begin near 0.36. This is one part of the list."}
{"variants_of": "B1", "assay": "one-hybrid fitness for binding NBS DNA (the Noc-binding site; scaled: cognate 1, non-cognate 0); higher = stronger binding", "settings": "with NBS DNA site", "in_short": "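The reporter was HIS3, with the binding site 19 bp from the promoter, in E. coli USO used for bacterial one-hybrid selection of Caulobacter ParB libraries with four specificity codons randomised. Growth was on M9 lacking histidine, with 0.1 mM IPTG and 5 mM 3-AT, for 48 hours at 37°C. Illumina sequencing covered plasmids before and after selection; three replicate libraries were pooled and variants with under 10 reads dropped. A fitness score is the log change in variant-to-wild-type read ratio, rescaled to the cognate and non-cognate references.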"}
{"variant": "PSKR", "one-hybrid fitness for binding NBS DNA": "≤ 0.2"}
{"variant": "QTSN", "one-hybrid fitness for binding NBS DNA": 0.221}
{"variant": "HTPS", "one-hybrid fitness for binding NBS DNA": "≤ 0.2"}
{"variant": "YRPF", "one-hybrid fitness for binding NBS DNA": "≤ 0.2"}
{"variant": "TPNI", "one-hybrid fitness for binding NBS DNA": "≤ 0.2"}
{"variant": "ANLP", "one-hybrid fitness for binding NBS DNA": "≤ 0.2"}
{"variant": "LAKR", "one-hybrid fitness for binding NBS DNA": "≤ 0.2"}
{"variant": "TSKS", "one-hybrid fitness for binding NBS DNA": "≤ 0.2"}
{"variant": "NPDA", "one-hybrid fitness for binding NBS DNA": "≤ 0.2"}
{"variant": "CYQR", "one-hybrid fitness for binding NBS DNA": "≤ 0.2"}
{"variant": "SCAN", "one-hybrid fitness for binding NBS DNA": "≤ 0.2"}
{"variant": "SPLD", "one-hybrid fitness for binding NBS DNA": "≤ 0.2"}
{"variant": "HLLN", "one-hybrid fitness for binding NBS DNA": "≤ 0.2"}
{"variant": "LTFS", "one-hybrid fitness for binding NBS DNA": "≤ 0.2"}
{"variant": "RWFS", "one-hybrid fitness for binding NBS DNA": "≤ 0.2"}
{"variant": "QRGL", "one-hybrid fitness for binding NBS DNA": 0.295}
{"variant": "TGTW", "one-hybrid fitness for binding NBS DNA": "≤ 0.2"}
{"variant": "TCPW", "one-hybrid fitness for binding NBS DNA": "≤ 0.2"}
{"variant": "HIYS", "one-hybrid fitness for binding NBS DNA": "≤ 0.2"}
{"variant": "RYEH", "one-hybrid fitness for binding NBS DNA": "≤ 0.2"}
{"variant": "GRKW", "one-hybrid fitness for binding NBS DNA": "≤ 0.2"}
{"variant": "QESV", "one-hybrid fitness for binding NBS DNA": "≤ 0.2"}
{"variant": "QWTG", "one-hybrid fitness for binding NBS DNA": "≤ 0.2"}
{"variant": "WLRI", "one-hybrid fitness for binding NBS DNA": "≤ 0.2"}
{"variant": "LESA", "one-hybrid fitness for binding NBS DNA": "≤ 0.2"}
{"variant": "HDRS", "one-hybrid fitness for binding NBS DNA": "≤ 0.2"}
{"variant": "IHAR", "one-hybrid fitness for binding NBS DNA": "≤ 0.2"}
{"variant": "QSYH", "one-hybrid fitness for binding NBS DNA": "≤ 0.2"}
{"variant": "QSEI", "one-hybrid fitness for binding NBS DNA": "≤ 0.2"}
{"variant": "RALH", "one-hybrid fitness for binding NBS DNA": "≤ 0.2"}
{"variant": "QVIS", "one-hybrid fitness for binding NBS DNA": "≤ 0.2"}
{"variant": "SLWG", "one-hybrid fitness for binding NBS DNA": "≤ 0.2"}
{"variant": "VQIT", "one-hybrid fitness for binding NBS DNA": "≤ 0.2"}
{"variant": "CMLD", "one-hybrid fitness for binding NBS DNA": "≤ 0.2"}
{"variant": "SKSD", "one-hybrid fitness for binding NBS DNA": "≤ 0.2"}
{"variant": "SPDI", "one-hybrid fitness for binding NBS DNA": "≤ 0.2"}
{"variant": "LHWS", "one-hybrid fitness for binding NBS DNA": "≤ 0.2"}
{"variant": "SPFS", "one-hybrid fitness for binding NBS DNA": "≤ 0.2"}
{"variant": "ACCI", "one-hybrid fitness for binding NBS DNA": "≤ 0.2"}
{"variant": "PQPM", "one-hybrid fitness for binding NBS DNA": "≤ 0.2"}
{"variant": "RYKG", "one-hybrid fitness for binding NBS DNA": "≤ 0.2"}
{"variant": "TVPM", "one-hybrid fitness for binding NBS DNA": "≤ 0.2"}
{"variant": "QHNQ", "one-hybrid fitness for binding NBS DNA": "≤ 0.2"}
{"variant": "RPLT", "one-hybrid fitness for binding NBS DNA": "≤ 0.2"}
{"variant": "QRAW", "one-hybrid fitness for binding NBS DNA": 0.294}
{"variant": "VGLN", "one-hybrid fitness for binding NBS DNA": "≤ 0.2"}
{"variant": "QSAM", "one-hybrid fitness for binding NBS DNA": "≤ 0.2"}
{"variant": "HTHE", "one-hybrid fitness for binding NBS DNA": "≤ 0.2"}
{"variant": "EGMC", "one-hybrid fitness for binding NBS DNA": "≤ 0.2"}
{"variant": "VYMS", "one-hybrid fitness for binding NBS DNA": "≤ 0.2"}
{"variant": "WQHT", "one-hybrid fitness for binding NBS DNA": "≤ 0.2"}
{"variant": "RSQC", "one-hybrid fitness for binding NBS DNA": "≤ 0.2"}
{"variant": "GRSA", "one-hybrid fitness for binding NBS DNA": "≤ 0.2"}
{"variant": "ELPV", "one-hybrid fitness for binding NBS DNA": "≤ 0.2"}
{"variant": "GEQC", "one-hybrid fitness for binding NBS DNA": "≤ 0.2"}
{"variant": "QGRL", "one-hybrid fitness for binding NBS DNA": "≤ 0.2"}
{"variant": "GPGC", "one-hybrid fitness for binding NBS DNA": "≤ 0.2"}
{"variant": "TYQL", "one-hybrid fitness for binding NBS DNA": "≤ 0.2"}
{"variant": "AHYT", "one-hybrid fitness for binding NBS DNA": "≤ 0.2"}
{"variant": "RLHR", "one-hybrid fitness for binding NBS DNA": 0.491}
{"variant": "TPDV", "one-hybrid fitness for binding NBS DNA": "≤ 0.2"}
{"variant": "AWMN", "one-hybrid fitness for binding NBS DNA": "≤ 0.2"}
{"variant": "QKML", "one-hybrid fitness for binding NBS DNA": "≤ 0.2"}
{"variant": "KILC", "one-hybrid fitness for binding NBS DNA": "≤ 0.2"}
{"variant": "LMFR", "one-hybrid fitness for binding NBS DNA": "≤ 0.2"}
{"variant": "TRCY", "one-hybrid fitness for binding NBS DNA": "≤ 0.2"}
{"variant": "DVDG", "one-hybrid fitness for binding NBS DNA": "≤ 0.2"}
{"variant": "RHDE", "one-hybrid fitness for binding NBS DNA": "≤ 0.2"}
{"variant": "SFSR", "one-hybrid fitness for binding NBS DNA": "≤ 0.2"}
{"variant": "WRLG", "one-hybrid fitness for binding NBS DNA": "≤ 0.2"}
{"variant": "RPFF", "one-hybrid fitness for binding NBS DNA": "≤ 0.2"}
{"variant": "RTIQ", "one-hybrid fitness for binding NBS DNA": "≤ 0.2"}
{"variant": "GFYM", "one-hybrid fitness for binding NBS DNA": "≤ 0.2"}
{"variant": "YHLF", "one-hybrid fitness for binding NBS DNA": "≤ 0.2"}
{"variant": "RLYH", "one-hybrid fitness for binding NBS DNA": "≤ 0.2"}
{"variant": "AMGR", "one-hybrid fitness for binding NBS DNA": "≤ 0.2"}
{"variant": "PYVT", "one-hybrid fitness for binding NBS DNA": "≤ 0.2"}
{"variant": "PRTD", "one-hybrid fitness for binding NBS DNA": "≤ 0.2"}
{"variant": "SPNL", "one-hybrid fitness for binding NBS DNA": "≤ 0.2"}
{"variant": "PVYT", "one-hybrid fitness for binding NBS DNA": "≤ 0.2"}
{"variant": "RLYR", "one-hybrid fitness for binding NBS DNA": 0.385}
{"variant": "HRFT", "one-hybrid fitness for binding NBS DNA": "≤ 0.2"}
{"variant": "QVQM", "one-hybrid fitness for binding NBS DNA": "≤ 0.2"}
{"variant": "VNSF", "one-hybrid fitness for binding NBS DNA": "≤ 0.2"}
{"variant": "WIRC", "one-hybrid fitness for binding NBS DNA": "≤ 0.2"}
{"variant": "IWAR", "one-hybrid fitness for binding NBS DNA": "≤ 0.2"}
{"variant": "SYLP", "one-hybrid fitness for binding NBS DNA": "≤ 0.2"}
{"variant": "LQKC", "one-hybrid fitness for binding NBS DNA": "≤ 0.2"}
{"variant": "VLNV", "one-hybrid fitness for binding NBS DNA": "≤ 0.2"}
{"variant": "LFRG", "one-hybrid fitness for binding NBS DNA": "≤ 0.2"}
{"variant": "RTGS", "one-hybrid fitness for binding NBS DNA": 0.491}
{"variant": "SRYV", "one-hybrid fitness for binding NBS DNA": "≤ 0.2"}
{"variant": "KQTG", "one-hybrid fitness for binding NBS DNA": "≤ 0.2"}
{"variant": "CLVK", "one-hybrid fitness for binding NBS DNA": "≤ 0.2"}
{"variant": "QRAG", "one-hybrid fitness for binding NBS DNA": 0.37}
{"variant": "QPAV", "one-hybrid fitness for binding NBS DNA": "≤ 0.2"}
{"variant": "PSPY", "one-hybrid fitness for binding NBS DNA": "≤ 0.2"}
{"variant": "ITPT", "one-hybrid fitness for binding NBS DNA": "≤ 0.2"}
